# Reference: PubChem BioAssay AID651820 (National Center for Advancing Translational Sciences (NCATS), 2012)
# Out of some 340,000 compounds screened, about 12,000 (3.5%) were called active. The inconclusive results got no clear call from the source; some entries with a clear call stand among them for comparison. The call rests on the fitted dose curve; in most records, active means well fitted inhibition curve with a large enough effect; inconclusive means small, poorly fitted or top-dose-only effect, or another doubt; inactive means no such curve, though single readings can be large or run the other way. No potency is given beside an inconclusive call; the fits are too rough.
# Test: qHTS Assay for Inhibitors of Hepatitis C Virus (HCV)
# Settings: Huh7.5.1 HCVcc-Cre (HCVcc is cell-culture hepatitis C virus) infection, luciferase reporter, 44 h; activity change, negative = inhibition: at 41.8 µM (top of the series)
# Summary of the method: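 HCVcc-Cre virus at an moi near 0.5 was added right after compound to cells cultured 4 h from seeding (1,000 cells/well). Luciferase activity was determined 44 h later, 15 min after substrate addition at RT.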
# On the % scale 0 is the no-effect control and ±100 the full control effect; potency means the concentration at half of the fitted maximal effect; tags describe the fitted curve by direction and shape.
SMILES,Potency,"activity change, negative = inhibition"
O=C(CSc1ccc(-c2cccnc2)nn1)Nc1ccccc1,"inconclusive [inhibitor, single point]",–
Cc1noc(C)c1CSCC(=O)Nc1cc(S(=O)(=O)N2CCCCC2)ccc1OC(C)C,"inconclusive [inhibitor, partial curve]",–
CNC(=S)N/N=C/c1cn(Cc2ccc(F)cc2)c2ccccc12,active: 31.6 µM,–
CC1CCC(C(=O)NC(C(=O)N2CCc3ccccc3C2)C(C)C)CC1 (configuration not stated),"inconclusive [inhibitor, single point]",–
O=C(Nc1cccc([N+](=O)[O-])c1)c1ccc2nsnc2c1,"inconclusive [inhibitor, single point]",–
CCOc1ccccc1C(C(=O)NCCOC)N(CCOC)C(=O)Cn1nnc2ccccc21 (configuration not stated),inactive,–
COc1cc(C2=NOC(C(=O)Nc3ccc(C)cc3)C2)cc(OC)c1OC (configuration not stated),"inconclusive [inhibitor, single point]",–
COc1cc(-c2[nH]ncc2CN(C)Cc2nonc2C)cc(OC)c1OC,"inconclusive [inhibitor, single point]",–
COC(=O)C(C)n1cnc2c(cnn2-c2ccc(Cl)cc2)c1=O (configuration not stated),"inconclusive [inhibitor, partial curve]",–
O=C(c1cc(COc2ccc(F)c(F)c2)on1)N1CCN(C/C=C/c2ccccc2)CC1,"inconclusive [inhibitor, single point]",–
CCOC(=O)c1cc(-c2ccccc2)sc1NC(=O)CN1C(=O)NC(CC)(c2ccc(F)cc2)C1=O (configuration not stated),active: 10 µM,–
CSCC[C@H](NC(=O)c1cc([N+](=O)[O-])ccc1Cl)c1nc2ccccc2[nH]1,"inconclusive [inhibitor, partial curve, poor fit]",–
CCc1ccccc1NC(=O)C(CC)Sc1nc2cc3c(cc2c(=O)n1Cc1ccco1)OCO3 (configuration not stated),"inconclusive [inhibitor, partial curve]",–
CCOC(=O)c1c(O)c2ccccc2oc1=O,inactive,–
COc1cccc(NC(=O)CN(C)C(=O)c2ccc(Cl)c(S(=O)(=O)N3CCCCCC3)c2)c1,–,inconclusive: -37.3% [inhibitor]
COc1ccc(C(C)(C)C)cc1NC(=O)CCCN1C(=O)NC(C)(C)C1=O,"inconclusive [inhibitor, single point]",–
CSc1ccccc1NC(=O)COC(=O)c1ccccc1Cc1ccccc1,"inconclusive [inhibitor, single point]",–
CCCSc1ncc(Cl)c(C(=O)Nc2ccc(S(=O)(=O)N3CC(C)OC(C)C3)cc2)n1 (configuration not stated),active: 10 µM,–
Nc1c(C(=O)NCc2ccco2)c2nc3ccccc3nc2n1CCc1ccccc1F,"inconclusive [inhibitor, partial curve]",–
COc1ccc(-n2c(SCC(=O)NCCC(C)C)nc3ccsc3c2=O)cc1,"inconclusive [inhibitor, partial curve, poor fit]",–
Cc1cc2oc(=O)cc(CN3CCCCC3C)c2cc1C(C)C (configuration not stated),active: 12.6 µM,–
CCN(CC)c1ccc(NC(=O)c2cc(OC)cc(OC)c2)c(C)c1,"inconclusive [inhibitor, partial curve]",–
N/C(=C\C(=O)c1cc(Cl)ccc1O)C(Cl)(Cl)Cl,"inconclusive [inhibitor, single point]",–

SMILES,Potency,"activity change, negative = inhibition"
CCCCOc1ccc(C(=O)NCC(=O)OC2CCOC2=O)cc1 (configuration not stated),"inconclusive [inhibitor, single point]",–
N#Cc1cccc(NC(=O)CNc2cccc(S(=O)(=O)N3CCCCC3)c2)c1,"inconclusive [inhibitor, full curve]",–
COc1ccc(CNCCC(c2ccccc2)C2CCOC(C)(C)C2)cc1 (configuration not stated),"inconclusive [inhibitor, single point]",–
COc1ccc(-c2noc(CCC(=O)N3CCN(c4cccc(OC)c4)CC3)n2)cc1,"inconclusive [inhibitor, partial curve]",–
O=C(C1CCCCC1)N1CCN(c2ccnc3cc(Cl)ccc23)CC1,"inconclusive [inhibitor, single point]",–
NS(=O)(=O)c1ccc(CCNC(=O)CSc2ccc(Cl)cc2Cl)cc1,inactive,–
Nc1ncnc(Nc2ccccn2)c1[N+](=O)[O-],"inconclusive [inhibitor, partial curve, poor fit]",–
O=C(Nc1nc2ccccc2s1)c1ccc(OCC2CCCO2)cc1 (configuration not stated),active: 7.94 µM,–
CS(=O)(=O)c1ccc2nc(NC(=O)c3cc4ccccc4o3)sc2c1,inactive,–
COCCn1c(SCC(=O)NC(=O)NCc2ccccc2)nc2ccccc2c1=O,"inconclusive [inhibitor, single point]",–
CCOC(=O)C1=C(C)n2c(s/c(=C/c3cccc([N+](=O)[O-])c3)c2=O)=NC1c1ccc(O)c(OC)c1 (configuration not stated),active: 8.91 µM,–
CCN1C[C@@H]2[C@@H]3C(=O)N(C)C(=O)[C@@H]3[C@](Cc3ccccc3)(C1=O)N2C(=O)c1ccc(Br)cc1,inactive,–
COc1ccc(/C=C/C(=O)Nc2cccc(F)c2)cc1S(=O)(=O)N1CCOCC1,active: 10 µM,–
Cc1ccc(N(Cc2ccccc2)C(=O)c2cc(S(=O)(=O)N3CCOCC3)ccc2C)cc1,inactive,–
O=C(COc1ccccc1/C=C\c1[nH]c(=O)[nH]c(=O)c1[N+](=O)[O-])Nc1ccccc1,inactive,–
O=S1(=O)c2c(F)cccc2OC(COCc2ccccc2)CN1C1CCCC1 (configuration not stated),"inconclusive [inhibitor, partial curve]",–
CCOC(=O)C1CN(S(=O)(=O)c2ccc(C)cc2)c2ccccc2O1 (configuration not stated),inactive,–
O=C(NC1CCCC1)c1ccccc1OCc1ccccc1,active: 7.94 µM,–
Cc1csc(NC(=O)c2cnccn2)n1,inactive,–
CC1CCCCN1C(=O)c1ccc(C(=O)Nc2ccc(F)cc2)cc1 (configuration not stated),inactive,–
O=C(Nc1ccc(Cl)cc1)N1CCC(c2nc(-c3cccs3)no2)CC1,"inconclusive [inhibitor, single point]",–
CCOc1ccc2nc(NCCCNS(=O)(=O)c3ccccc3)c(C#N)cc2c1,"inconclusive [inhibitor, partial curve]",–
CCC1CCc2c(sc3ncnc(N4CCOCC4)c23)C1 (configuration not stated),"inconclusive [inhibitor, partial curve]",–

SMILES,Potency,"activity change, negative = inhibition"
Cc1ccc(-c2nc3c(c(=O)[nH]c(=O)n3CC(C)C)n2CC(C)C)cc1[N+](=O)[O-],"inconclusive [inhibitor, single point]",–
COc1ccc(OCCOC(=O)c2cc(S(=O)(=O)N3CCOCC3)c(Cl)cc2Cl)cc1,"inconclusive [inhibitor, single point]",–
COCCNC(=O)CCn1nc(-c2ccc(C)cc2)ccc1=O,inactive,–
COc1nc(Nc2ccc(-c3nc4ccccc4o3)cc2)nc(N2CCOCC2)n1,"inconclusive [inhibitor, partial curve]",–
CCN(CC)c1ccc(N=C2C(=O)Nc3ccccc32)cc1,"inconclusive [inhibitor, single point]",–
CC(NC(=O)c1cccc(S(=O)(=O)N2CCN(C)CC2)c1)c1ccc(Cl)cc1Cl (configuration not stated),"inconclusive [inhibitor, full curve, poor fit]",–
O=C(COc1ccccc1Cl)Nc1cccc(S(=O)(=O)NC2=NCCCCC2)c1,"inconclusive [inhibitor, partial curve]",–
N#C/C(=N\Nc1cc(Cl)cc(Cl)c1)c1nnc2n1CCCCC2,"inconclusive [inhibitor, single point]",–
COc1cc(COc2ccc3c(C)c(CCC(=O)O)c(=O)oc3c2)cc(OC)c1OC,inactive,–
Cc1cc(Br)ccc1N=C1NC(=O)CS1,inactive,–
Cc1cccc(NCC(=O)N/N=C/c2ccc(Br)cc2)c1,"inconclusive [inhibitor, single point]",–
Cc1cc(C)cc(NC(=S)NC(=O)C2CC2)c1,"inconclusive [inhibitor, partial curve]",–
O=Nc1c2cc3ccccc3[nH]c-2c2ccccc12,"inconclusive [inhibitor, single point]",–
COc1cc(OC)c(NC(=O)CCc2nc(-c3ccc(C)cc3)no2)cc1Cl,"inconclusive [inhibitor, full curve]",–
COc1cccc(N2CCN(C(=O)c3oc4ccccc4c3NC(=O)Cc3ccc(OC)c(OC)c3)CC2)c1,"inconclusive [inhibitor, partial curve]",–
Cc1nn(Cc2ccccc2Cl)c2sc(C(=O)NC(C)(C)C)cc12,"inconclusive [inhibitor, partial curve, poor fit]",–
COc1cc2c3c(c1OC)Oc1ccc(cc1)C[C@H]1c4c(cc(OC)c(OC)c4Oc4ccc(cc4)C[C@@H]3N(C)CC2)CCN1C,"inconclusive [inhibitor, partial curve]",–
CC1(C)CC(=O)C=C(NC2=CC3OC(c4ccccc4)OCC3OC2=O)C1 (configuration not stated),"inconclusive [inhibitor, single point]",–
CN(C)CCCN(C(=O)c1cc(-c2cccs2)nc2ccccc12)c1nc2ccc(F)cc2s1,"inconclusive [inhibitor, single point]",–
COCCCNc1nc(CC(C)C)nc2c1nnn2Cc1ccccc1,"inconclusive [inhibitor, partial curve]",–
O=C(c1cccc(Br)c1)N1CCN(c2cnn(-c3ccccc3)c(=O)c2Cl)CC1,"inconclusive [inhibitor, partial curve]",–
